Assay results: PubChem BioAssay AID504339 (National Center for Advancing Translational Sciences (NCATS), 2011)
The whole screen tested about 390,000 compounds, of which about 17,000 (4.4%) were called active. The shares of active, inactive and inconclusive entries below differ from those in the screen. Calls follow the shape of the dose curve; as a rule, active = well fitted inhibition curve with a large enough effect; inconclusive = small, poorly fitted or top-dose-only effect; inactive = no such curve, though single readings can be large or run the other way. A potency beside an inconclusive call is a rough fit, not a confirmed value.
Also: nearly all actives have a fitted effect of over 50% in size.
Potency is read from the fitted curve at half-maximal effect; tags tell the direction and shape of the fitted curve.

Each compound was assayed against Lysine-specific demethylase 4A (Homo sapiens) (UniProt O75164) (assay: qHTS Assay for Inhibitors of JMJD2A-Tudor Domain). Conditions: AlphaScreen JMJD2A-Tudor / H3K4me3 peptide binding; series mostly up to 114 µM.
UniProt O75164, sequence (O75164 whole entry, looked up, the tested form may be a part): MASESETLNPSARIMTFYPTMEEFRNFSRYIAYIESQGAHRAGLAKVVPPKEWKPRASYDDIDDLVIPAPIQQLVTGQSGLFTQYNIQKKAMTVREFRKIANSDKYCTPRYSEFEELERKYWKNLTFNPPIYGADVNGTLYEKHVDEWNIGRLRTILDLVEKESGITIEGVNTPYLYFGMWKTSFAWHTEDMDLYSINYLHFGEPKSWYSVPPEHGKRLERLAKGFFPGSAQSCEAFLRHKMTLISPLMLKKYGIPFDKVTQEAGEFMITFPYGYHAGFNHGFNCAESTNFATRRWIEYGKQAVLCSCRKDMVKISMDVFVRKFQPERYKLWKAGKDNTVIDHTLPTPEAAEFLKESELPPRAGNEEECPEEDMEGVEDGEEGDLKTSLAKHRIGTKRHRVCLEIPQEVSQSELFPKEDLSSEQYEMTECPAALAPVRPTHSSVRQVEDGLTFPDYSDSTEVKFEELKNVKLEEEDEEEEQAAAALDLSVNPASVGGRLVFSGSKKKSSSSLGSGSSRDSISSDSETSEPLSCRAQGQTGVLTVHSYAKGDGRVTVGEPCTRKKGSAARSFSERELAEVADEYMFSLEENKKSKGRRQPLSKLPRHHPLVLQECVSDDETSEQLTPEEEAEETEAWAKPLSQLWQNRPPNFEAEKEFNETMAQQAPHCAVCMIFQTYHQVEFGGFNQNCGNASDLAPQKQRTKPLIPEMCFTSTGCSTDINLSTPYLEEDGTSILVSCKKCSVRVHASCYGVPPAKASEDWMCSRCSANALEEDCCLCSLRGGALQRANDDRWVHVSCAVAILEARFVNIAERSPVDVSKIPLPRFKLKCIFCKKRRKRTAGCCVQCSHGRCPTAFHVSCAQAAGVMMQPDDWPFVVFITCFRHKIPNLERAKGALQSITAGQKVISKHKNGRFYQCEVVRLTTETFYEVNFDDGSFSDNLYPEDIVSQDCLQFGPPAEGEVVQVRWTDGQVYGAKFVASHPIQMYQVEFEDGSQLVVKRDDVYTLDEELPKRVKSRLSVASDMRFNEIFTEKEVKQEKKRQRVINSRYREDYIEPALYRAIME
COc1ccc(NS(=O)(=O)c2ccc(NS(=O)(=O)c3ccc4c(c3)OCCO4)cc2)cc1 was tested, and the Potency was inconclusive: 39.8 µM [inhibitor, partial curve, poor fit].
In the case of CCOC(=O)C1CCCN(c2c(NCCc3cccc(C)c3)c(=O)c2=O)C1 (stereo not given), the Potency is reported as “inactive”.
For Cc1ccc(S(=O)(=O)c2c(N)n(CCC(C)C)c3nc4ccccc4nc23)cc1, the Potency was “inactive”.
For COc1ccc(N2CCN(C(=O)CCn3cnc4onc(-c5ccc(F)cc5)c4c3=O)CC2)cc1, the Potency was inconclusive: 20 µM [inhibitor, full curve].
With Cc1cc2[nH]c3c4ccccc4nc(C)c3c2cc1C the Potency was inconclusive: 56.2 µM [inhibitor, partial curve].
In the case of Cc1ccc(/C=N/Nc2nc3ccccc3s2)o1, the Potency is reported as inconclusive: 22.4 µM [inhibitor, full curve].
Cc1nc2c(O)cccc2cc1CO was tested, and the Potency was active: 4.47 µM.
With CCc1ccc(-c2cc3c(N4CCN(c5ccccc5)CC4)nccn3n2)cc1 the Potency was inconclusive: 28.2 µM [inhibitor, partial curve].
With CCOC(=O)Cc1csc(-n2sc3ccccc3c2=O)n1 the Potency was active: 17.8 µM.
With Cc1ccc(N2C(=O)CC(Sc3ccccc3C(=O)O)C2=O)cc1 (stereo not given) the Potency was inconclusive: 89.1 µM [inhibitor, partial curve, poor fit].
With Cc1ccc(NC(=O)CNc2ccc(OC(C)C)cc2)cc1 the Potency was inconclusive: 63.1 µM [inhibitor, partial curve, poor fit].
With CN1c2ccccc2C(C)(C)C12CC(CCl)=NO2 (stereo not given) the Potency was “inactive”.
With COc1ccccc1N1C(=O)CC(N(O)c2ccccc2)C1=O (stereo not given) the Potency was “inactive”.
CCOc1ccc(-n2c(SCC(=O)N3CCCCC3)nc3c([nH]c4ccccc43)c2=O)cc1 was tested, and the Potency was “inactive”.
COc1ccc(OCc2cc(C(=O)N3CCCC(OC)C3)no2)c2ccccc12 (stereo not given) was tested, and the Potency was inconclusive: 56.2 µM [inhibitor, partial curve].
With OCCN(CCO)CC(O)Cn1c2ccccc2c2ccccc21 (stereo not given) the Potency was inconclusive: 100 µM [inhibitor, single point].
CCN1C(=NCCOC)N[C@@H](c2cccs2)C(C(=O)OC)=C1C was tested, and the Potency was inconclusive: 39.8 µM [inhibitor, single point].
With Cc1cccn2c(=O)c3cc(C(=O)NCc4ccccc4Cl)sc3nc12 the Potency was “inactive”.
In the case of COc1cc(NCc2ccccc2)c2ncn(Cc3ccccc3)c2c1, the Potency is reported as active: 25.1 µM.
With CC(NC(=O)c1cccs1)c1ccc(Br)cc1 (stereo not given) the Potency was inconclusive: 89.1 µM [inhibitor, single point].
Cc1c(OC(C)C(=O)NC(Cc2c[nH]c3ccc(O)cc23)C(=O)O)ccc2c1oc(=O)c1ccccc12 (stereo not given) was tested, and the Potency was inconclusive: 79.4 µM [inhibitor, partial curve].
With NC(=NCCc1ccccc1)c1cccc([N+](=O)[O-])c1 the Potency was “inactive”.
For O=C(CCc1ccc(O)cc1)c1c(O)cc(O)cc1O, the Potency was “inactive”.
Cc1nn(Cc2c(F)cccc2Cl)c(C)c1NC(=O)C1CC1 was tested, and the Potency was “inactive”.
COc1ccc(Cl)c2c1[nH]c1nc(SCc3ccccn3)nnc12 was tested, and the Potency was “inactive”.
For Nc1ccc(N=Nc2ccccc2)c2cccnc12, the Potency was active: 31.6 µM.
For CCOC(=O)C1=C(C)N=c2s/c(=C\c3ccc(OCC(=O)O)cc3)c(=O)n2C1c1ccc(Cl)cc1 (stereo not given), the Potency was active: 20 µM.
For Cc1nc2c3ccccc3nc(NNC(=O)CCC(=O)NCCN3CCN(c4ccccc4F)CC3)n2n1, the Potency was “inactive”.
In the case of COc1ccc(C(c2nnnn2Cc2ccccc2)N2CCN(C(=O)c3ccco3)CC2)cc1OC (stereo not given), the Potency is reported as inconclusive: 89.1 µM [inhibitor, single point].
For Cc1cc(=O)[nH]c(SCC(=O)Nc2ncc(S(=O)(=O)c3ccc([N+](=O)[O-])cc3)s2)n1, the Potency was “inactive”.
For COc1cccc(CC2(CO)CCCN(Cc3sc(N4CCCC4)nc3Cl)C2)c1 (stereo not given), the Potency was inconclusive: 56.2 µM [inhibitor, partial curve].
For CCN1C(=S)SC(=O)C1=C1C=C(C)N(Cc2ccco2)C(C)=C1, the Potency was “inactive”.
For COc1cc(-c2nc3ccc(C)cn3c2Nc2ccc(Cl)cc2)ccc1O, the Potency was inconclusive: 50.1 µM [inhibitor, partial curve].
COc1cc(C(=O)NNC(=O)c2cc(-c3ccccc3)n[nH]2)cc(OC)c1C was tested, and the Potency was “inactive”.
With O=C(CSc1nc(-c2ccccc2)cn1-c1ccccc1)Nc1ccccc1 the Potency was inconclusive: 50.1 µM [inhibitor, partial curve].
